From US11618753B2 (priority 2018, dated 2023)

What follows are compounds tested on MLKL phosphorylation, HT29-L23 human colorectal adenocarcinoma cells (assay: cells). Settings: read-out: pMLKL HCS Cell Assay (IC50, uM).
`COc1ncc(-c2cc(CN3CCC(C(F)(F)F)CC3)c3c(N)ncnn23)cc1C(=O)N[C@@H]1CN(C(=O)c2ccccc2F)C[C@@H]1F` [Example 1632, 5-(4-amino-5-{[4-(trifluoromethyl)piperidin-1-yl]methyl}pyrrolo[2,1-f][1,2,4]triazin-7-yl)-N-[(3R,4S)-4-fluoro-1-(2-fluorobenzoyl)pyrrolidin-3-yl]-2-methoxypyridine-3-carboxamide] gave an IC50 of 0.0041 µM. Compound `COc1cc(F)c(-c2cc(CN3CCC(F)(F)CC3)c3c(N)ncnn23)cc1C(=O)N[C@@H]1CN(C(=O)C2CC(F)(F)C2)C[C@@H]1F` [Example 1633, 5-{4-amino-5-[(4,4-difluoropiperidin-1-yl)methyl]pyrrolo[2,1-f][1,2,4]triazin-7-yl}-N-[(3R,4S)-1-(3,3-difluorocyclobutanecarbonyl)-4-fluoropyrrolidin-3-yl]-4-fluoro-2-methoxybenzamide] has an IC50 of 0.0024 µM. Work on `COc1cc(F)c(-c2cc(CN3CCC(F)(F)CC3)c3c(N)ncnn23)cc1C(=O)N[C@@H]1CN(C(=O)C2CC2(F)F)C[C@@H]1F` (stereo partly drawn) [Example 1634, 5-{4-amino-5-[(4,4-difluoropiperidin-1-yl)methyl]pyrrolo[2,1-f][1,2,4]triazin-7-yl}-N-[(3R,4S)-1-(2,2-difluorocyclopropanecarbonyl)-4-fluoropyrrolidin-3-yl]-4-fluoro-2-methoxybenzamide] yielded an IC50 of 0.0033 µM. With `COc1cc(F)c(-c2cc(CN3CCC(F)(F)CC3)c3c(N)ncnn23)cc1C(=O)N[C@@H]1CN(C(=O)CC(O)(C(F)(F)F)C(F)(F)F)C[C@@H]1F` [Example 1635, 5-{4-amino-5-[(4,4-difluoropiperidin-1-yl)methyl]pyrrolo[2,1-f][1,2,4]triazin-7-yl}-4-fluoro-N-[(3R,4S)-4-fluoro-1-[4,4,4-trifluoro-3-hydroxy-3-(trifluoromethyl)butanoyl]pyrrolidin-3-yl]-2-methoxybenzamide] the IC50 was 0.0081 µM. `CCC(O)(C(=O)N1C[C@H](F)[C@H](NC(=O)c2cc(-c3cc(CN4CCC(F)(F)CC4)c4c(N)ncnn34)c(F)cc2OC)C1)C(F)(F)F` (stereo partly drawn) [Example 1637, 5-{4-amino-5-[(4,4-difluoropiperidin-1-yl)methyl]pyrrolo[2,1-f][1,2,4]triazin-7-yl}-4-fluoro-N-[(3R,4S)-4-fluoro-1-[2-hydroxy-2-(trifluoromethyl)butanoyl]pyrrolidin-3-yl]-2-methoxybenzamide] showed an IC50 of 0.0012 µM. For `COc1cc(F)c(-c2cc(CN3CCC(F)(F)CC3)c3c(N)ncnn23)cc1C(=O)N[C@@H]1CN(C(=O)C(C)(C)C(F)(F)F)C[C@@H]1F` [Example 1638, 5-{4-amino-5-[(4,4-difluoropiperidin-1-yl)methyl]pyrrolo[2,1-f][1,2,4]triazin-7-yl}-4-fluoro-N-[(3R,4S)-4-fluoro-1-(3,3,3-trifluoro-2,2-dimethylpropanoyl)pyrrolidin-3-yl]-2-methoxybenzamide], the IC50 was 0.0017 µM. For `COc1cc(F)c(-c2cc(CN3CCC(C(F)(F)F)CC3)c3c(N)ncnn23)cc1C(=O)N[C@@H]1CN(C(=O)[C@@](C)(O)C(F)(F)F)C[C@@H]1F` [Example 1639, 5-(4-amino-5-{[4-(trifluoromethyl)piperidin-1-yl]methyl}pyrrolo[2,1-f][1,2,4]triazin-7-yl)-4-fluoro-N-[(3R,4S)-4-fluoro-1-[(2R)-3,3,3-trifluoro-2-hydroxy-2-methylpropanoyl]pyrrolidin-3-yl]-2-methoxybenzamide], the IC50 was 0.0014 µM. Work on `COc1cc(F)c(-c2cc(CN3CCC(C(F)(F)F)CC3)c3c(N)ncnn23)cc1C(=O)N[C@@H]1CN(C(=O)C2CC(F)(F)C2)C[C@@H]1F` [Example 1640, 5-(4-amino-5-{[4-(trifluoromethyl)piperidin-1-yl]methyl}pyrrolo[2,1-f][1,2,4]triazin-7-yl)-N-[(3R,4S)-1-(3,3-difluorocyclobutanecarbonyl)-4-fluoropyrrolidin-3-yl]-4-fluoro-2-methoxybenzamide] yielded an IC50 of 0.0038 µM. `Cc1ccc(-c2cc(CN3CCC(F)(F)CC3)c3c(N)ncnn23)cc1C(=O)N[C@@H]1CN(C(=O)C2CC(F)(F)C2)C[C@@H]1F` [Example 1641, 5-{4-amino-5-[(4,4-difluoropiperidin-1-yl)methyl]pyrrolo[2,1-f][1,2,4]triazin-7-yl}-N-[(3R,4S)-1-(3,3-difluorocyclobutanecarbonyl)-4-fluoropyrrolidin-3-yl]-2-methylbenzamide] showed an IC50 of 0.00043 µM. `Cc1ccc(-c2cc(CN3CCC(F)(F)CC3)c3c(N)ncnn23)cc1C(=O)N[C@@H]1CN(C(=O)CC(O)(C(F)(F)F)C(F)(F)F)C[C@@H]1F` [Example 1642, 5-{4-amino-5-[(4,4-difluoropiperidin-1-yl)methyl]pyrrolo[2,1-f][1,2,4]triazin-7-yl}-N-[(3R,4S)-4-fluoro-1-[4,4,4-trifluoro-3-hydroxy-3-(trifluoromethyl)butanoyl]pyrrolidin-3-yl]-2-methylbenzamide] was tested, and the IC50 was 0.00081 µM. With `Cc1ccc(-c2cc(CN3CCC(F)(F)CC3)c3c(N)ncnn23)cc1C(=O)N[C@@H]1CN(C(=O)C(C)(C)F)C[C@@H]1F` [Example 1643, 5-{4-amino-5-[(4,4-difluoropiperidin-1-yl)methyl]pyrrolo[2,1-f][1,2,4]triazin-7-yl}-N-[(3R,4S)-4-fluoro-1-(2-fluoro-2-methylpropanoyl)pyrrolidin-3-yl]-2-methylbenzamide] the IC50 was 0.0014 µM. In the case of `CCC(O)(C(=O)N1C[C@H](F)[C@H](NC(=O)c2cc(-c3cc(CN4CCC(F)(F)CC4)c4c(N)ncnn34)ccc2C)C1)C(F)(F)F` (stereo partly drawn) [Example 1644, 5-{4-amino-5-[(4,4-difluoropiperidin-1-yl)methyl]pyrrolo[2,1-f][1,2,4]triazin-7-yl}-N-[(3R,4S)-4-fluoro-1-[2-hydroxy-2-(trifluoromethyl)butanoyl]pyrrolidin-3-yl]-2-methylbenzamide], the IC50 is reported as 0.00092 µM. For `Cc1ccc(-c2cc(CN3CCC(F)(F)CC3)c3c(N)ncnn23)cc1C(=O)N[C@@H]1CN(C(=O)C(C)(C)C(F)(F)F)C[C@@H]1F` [Example 1645, 5-{4-amino-5-[(4,4-difluoropiperidin-1-yl)methyl]pyrrolo[2,1-f][1,2,4]triazin-7-yl}-N-[(3R,4S)-4-fluoro-1-(3,3,3-trifluoro-2,2-dimethylpropanoyl)pyrrolidin-3-yl]-2-methylbenzamide], the IC50 was 0.0025 µM. For `Cc1ccc(-c2cc(CN3CCC(F)(F)CC3)c3c(N)ncnn23)cc1C(=O)N[C@@H]1CN(C(=O)c2ccccc2F)C[C@@H]1F` [Example 1646, 5-{4-amino-5-[(4,4-difluoropiperidin-1-yl)methyl]pyrrolo[2,1-f][1,2,4]triazin-7-yl}-N-[(3R,4S)-4-fluoro-1-(2-fluorobenzoyl)pyrrolidin-3-yl]-2-methylbenzamide], the IC50 was 0.00034 µM. `Cc1ccc(-c2cc(CN3CCC(C(F)(F)F)CC3)c3c(N)ncnn23)cc1C(=O)N[C@@H]1CN(C(=O)[C@@](C)(O)C(F)(F)F)C[C@@H]1F` [Example 1647, 5-(4-amino-5-{[4-(trifluoromethyl)piperidin-1-yl]methyl}pyrrolo[2,1-f][1,2,4]triazin-7-yl)-N-[(3R,4S)-4-fluoro-1-[(2R)-3,3,3-trifluoro-2-hydroxy-2-methylpropanoyl]pyrrolidin-3-yl]-2-methylbenzamide] gave an IC50 of 0.00086 µM.
